From the supplement of paper PMC2702839
Where a name gives a salt, the structure may show the parent alone. The list shows a part of the results.

Each molecule was assayed on Schistosoma mansoni schistosomula (assay: phenotypic hit in primary schistosomula screen (any phenotype vs DMSO control) (binary (1 = hit, 0 = no phenotype)); higher = active (phenotype induced)). Details: 1 µM; time (d): 7.

SMILES	phenotypic hit
C/C=C(\C)C(=O)O[C@@H]1c2c(ccc3ccc(=O)oc23)OC(C)(C)[C@@H]1OC(C)=O [pteryxin]	inactive: 0
CC(=O)OCC(=O)[C@@]1(O)CC[C@H]2[C@@H]3CCC4=CC(=O)C=C[C@]4(C)[C@H]3[C@@H](O)C[C@@]21C [prednisolone acetate]	inactive: 0
C[C@]12CCC(=O)C=C1CC[C@@H]1[C@@H]2[C@@H](O)C[C@@]2(C)[C@H]1CC[C@]2(O)C(=O)COP(=O)(O)O [hydrocortisone sodium phosphate]	inactive: 0
CC[C@H](c1ccc(O)cc1)[C@@H](CC)c1ccc(O)cc1 [hexestrol]	inactive: 0
C=CC1=C(C)/C(=C/c2[nH]c(Cc3[nH]c(/C=C4\NC(=O)C(C)=C4C=C)c(C)c3CCC(=O)O)c(CCC(=O)O)c2C)NC1=O [bilirubin]	inactive: 0
CC(C)=CCCC1(C)C=Cc2c(O)c3c(c(CC=C(C)C)c2O1)OC12C(=CCCC1C(C)(C)O[C@@]2(C/C=C(\C)C(=O)O)C(=O)O)C3=O (some centres not stated) [garcinolic acid]	inactive: 0
C=C1CC[C@H](O)C/C1=C/C=C1\CCC[C@]2(C)[C@@H]([C@H](C)/C=C/[C@H](C)C(C)C)CC[C@@H]12 [ergocalciferol]	inactive: 0
Nc1nc(N)c2nc(-c3ccccc3)c(N)nc2n1 [Triamterene]	inactive: 0
COc1cccc(O)c1O [3-methoxycatechol]	inactive: 0
CCCCOc1ccc(C(=O)CCN2CCCCC2)cc1 [dyclonine hydrochloride]	active: 1
COc1ccc(CCC(=O)c2c(O)cc(O[C@@H]3O[C@H](CO)[C@@H](O)[C@H](O)[C@H]3O[C@@H]3O[C@@H](C)[C@H](O)[C@@H](O)[C@H]3O)cc2O)cc1O [neohesperidin dihydrochalcone]	inactive: 0
CC(C)(C)CC(C)(C)c1ccc(OCCOCC[N+](C)(C)Cc2ccccc2)cc1 [benzethonium chloride]	inactive: 0
CC(=O)/C(=C\c1ccccc1)CC(=O)O [levulinic acid,  3-benzylidenyl-]	inactive: 0
OC(CCN1CCCC1)(c1ccccc1)C1CCCCC1 (configuration not stated) [procyclidine hydrochloride]	inactive: 0
CC(C)NCC(O)COc1cccc2[nH]ccc12 (configuration not stated) [Pindolol]	inactive: 0
CC(C)=CCC[C@@H](C)[C@@H]1CC[C@]2(C)C3=C(CC[C@@]12C)[C@@]1(C)CC[C@H](O)C(C)(C)[C@@H]1CC3 [euphol]	inactive: 0
COC(=O)[C@H]1[C@H]2C[C@H]3c4[nH]c5ccccc5c4CCN3C[C@H]2CC[C@@H]1O [Rauwolscine hydrochloride]	inactive: 0
C[C@@H]([C@H]1OC(C)(C)[C@@H](O)[C@H]1O)[C@@H]1CC[C@]2(C)C3=CC[C@H]4C(C)(C)C(=O)CC[C@]4(C)[C@H]3CC[C@@]12C [odoratone]	inactive: 0
CC(CN(C)C)CN1c2ccccc2CCc2ccccc21 (configuration not stated) [trimipramine maleate]	inactive: 0
C[C@H]1[C@H]2CC[C@H]3[C@@H]4CC=C5C[C@@H](N(C)C)CC[C@]5(C)[C@H]4CC[C@]23CN1C [conessine]	inactive: 0
O=C(O)c1cc(O)ccc1O [gentisic acid]	inactive: 0

SMILES	phenotypic hit
O=C(O[C@@H]1Cc2c(O)cc(O)cc2O[C@@H]1c1cc(O)c(O)c(O)c1-c1c([C@H]2Oc3cc(O)cc(O)c3C[C@H]2OC(=O)c2cc(O)c(O)c(O)c2)cc(O)c(O)c1O)c1cc(O)c(O)c(O)c1 [2',2'-bisepigallocatechin digallate]	inactive: 0
CC(C)=CCc1c(O)cc2oc(C)cc(=O)c2c1O [peucenin]	inactive: 0
CC12CC3CC(C)(C1)CC(N)(C3)C2 [Memantine hydrochloride]	inactive: 0
C#C[C@]1(O)CC[C@H]2[C@@H]3CCC4=Cc5oncc5C[C@]4(C)[C@H]3CC[C@@]21C [danazol]	inactive: 0
CCOc1ccc(Cc2nccc3cc(OCC)c(OCC)cc23)cc1OCC [ethaverine hydrochloride]	inactive: 0
O=C(Nc1ccc([N+](=O)[O-])cc1Cl)c1cc(Cl)ccc1O [niclosamide]	active: 1
CSCCC(N)C(=O)NC(CC(C)C)C(=O)NC(Cc1ccccc1)C(=O)O (configuration not stated) [methionyl-leucylphenylalanine acetate]	inactive: 0
CN1CCCN=C1/C=C/c1cccs1 [pyrantel pamoate]	inactive: 0
C=C1C(N)CC2CC1C2(C)C (stereo not drawn) [3-amino-beta-pinene]	inactive: 0
CCC[C@@H]1C[C@@H](C(=O)N[C@@H]([C@H]2O[C@H](SC)[C@H](O)[C@@H](O)[C@H]2O)[C@@H](C)O)N(C)C1 [lincomycin hydrochloride]	inactive: 0
NNC(=O)c1ccncc1 [isoniazid]	inactive: 0
COc1ccc(/C=C/c2cc(O)cc(O[C@@H]3O[C@H](CO)[C@@H](O)[C@H](O)[C@H]3O)c2)cc1O [rhapontin]	inactive: 0
CC1(C)CC2C1CCC1(C)OC1CCC2(C)O (configuration not stated) [2-hydroxy-5 (6)epoxy-tetrahydrocaryophyllene]	inactive: 0
CC1=CCc2c(cc3oc(C)cc(=O)c3c2O)OC1 [ptaeroxylin]	inactive: 0
CC1(C)O[C@@H]2C[C@H]3[C@@H]4C[C@H](F)C5=CC(=O)CC[C@]5(C)[C@H]4[C@@H](O)C[C@]3(C)[C@]2(C(=O)CO)O1 [flurandrenolide]	inactive: 0
CCC(=O)OCC(=O)[C@@]1(OC(=O)CC)[C@@H](C)C[C@H]2[C@@H]3CCC4=CC(=O)C=C[C@]4(C)[C@@]3(F)[C@@H](O)C[C@@]21C [betamethasone 17,21-dipropionate]	inactive: 0
CCCCc1oc2ccccc2c1C(=O)c1cc(I)c(OCCN(CC)CC)c(I)c1 [Amiodarone hydrochloride]	inactive: 0
O=C(O)c1cccnc1 [niacin]	inactive: 0
Cc1cccc(N(C)C(=S)Oc2ccc3ccccc3c2)c1 [tolnaftate]	inactive: 0
O=c1cccc2ccc(O)c(O)c2c1O [pyrogallin]	inactive: 0
CCN1CCCC1CNC(=O)c1cc(S(N)(=O)=O)ccc1OC (configuration not stated) [sulpiride]	inactive: 0

SMILES	phenotypic hit
O=C(O)c1cc2cc(F)ccc2[nH]1 [5-Fluoroindole-2-carboxylic acid]	inactive: 0
O=C(O)CCC(=O)c1ccc(-c2ccccc2)cc1 [fenbufen]	inactive: 0
COc1ccc(-c2coc3cc(O)ccc3c2=O)c(OC)c1 [2'-methoxyformonetin]	inactive: 0
CCC(C)C(NC)C(=O)O (configuration not stated) [n-methylisoleucine]	inactive: 0
N[C@@H](Cc1ccc(O)c(O)c1)C(=O)O [levodopa]	inactive: 0
COc1cc(/C=C/CO)ccc1O [coniferyl alcohol]	inactive: 0
CN(C)CCc1c[nH]c2ccc(CS(=O)(=O)N3CCCC3)cc12 [almotriptan]	inactive: 0
COc1cc(O)cc(OC)c1OC [antiarol]	inactive: 0
COC(=O)CC1C2(C)CC34OC5(C)OC6(C7/C(=C(/O)C(C)C)C(=O)OC(c8ccoc8)C7(C)C(OC(=O)C(C)C)C(OC)C6(O5)C13C)C(OC)C4(OC)C2OC(C)=O (configuration not stated) [chukrasin]	inactive: 0
COC(=O)[C@H]1[C@H]2C[C@H]3c4[nH]c5cc(OC)ccc5c4CCN3C[C@H]2C[C@@H](OC(=O)c2cc(OC)c(OC)c(OC)c2)[C@@H]1OC [isoreserpine]	inactive: 0
C[N+](C)(C)CCOC(N)=O [Carbachol]	inactive: 0
COC(=O)C[C@H]1C2(C)CC34OC5(C)O[C@@]6([C@H](OC)C(OC(=O)C(C)C)[C@]7(C)C(/C(=C(/OC)C(C)C)C(=O)O[C@H]7c7ccoc7)[C@@]6(O5)[C@H](OC)[C@@]3(OC)C2OC(C)=O)[C@]14C (some centres not stated) [chukrasin methyl ether]	inactive: 0
Cc1nc2sccn2c(=O)c1CCN1CCC(=C(c2ccc(F)cc2)c2ccc(F)cc2)CC1 [Ritanserin]	inactive: 0
CO[C@H]1C[C@H](O[C@@H]2/C(C)=C/C[C@@H]3C[C@@H](C[C@]4(CC[C@H](C)[C@@H](C5CCCCC5)O4)O3)OC(=O)[C@@H]3C=C(C)/C(=N/O)[C@H]4OC/C(=C\C=C\[C@@H]2C)[C@]43O)O[C@@H](C)[C@@H]1O [selamectin]	inactive: 0
C[C@H](CCC(=O)O)[C@H]1CC[C@H]2[C@@H]3C(=O)C[C@@H]4CC(=O)CC[C@]4(C)[C@H]3CC(=O)[C@]12C [dehydrocholic acid]	inactive: 0
C[C@H](CCC(=O)O)[C@H]1CC[C@H]2[C@@H]3C(=O)C[C@@H]4CC(=O)CC[C@]4(C)[C@H]3CC(=O)[C@]12C [sodium dehydrocholate]	inactive: 0
C[C@@H]1O[C@@H](O[C@H]2[C@H](O[C@H]3CC[C@@]4(C)[C@@H](CC[C@]5(C)[C@@H]4CC=C4[C@@H]6CC(C)(C)CC[C@]6(C(=O)O)CC[C@]45C)[C@]3(C)CO)OC[C@H](O)[C@@H]2O)[C@H](O)[C@H](O)[C@H]1O [sapindoside a]	inactive: 0
O=C1c2c(O)ccc(O)c2C(=O)c2c(NCCNCCO)ccc(NCCNCCO)c21 [mitoxanthrone hydrochloride]	inactive: 0
CCN(CC)CCNC(=O)c1cc(Br)c(N)cc1OC [bromopride]	inactive: 0
C[C@H]1C(=O)CC[C@@H]2[C@]1(C)CC[C@H]1[C@@]2(C)CC[C@@]2(C)[C@@H]3CC(C)(C)CC[C@]3(C)CC[C@]12C [friedelin]	inactive: 0
